Reference: PubChem BioAssay AID686979 (National Center for Advancing Translational Sciences (NCATS), 2013)
Among all 420,000 compounds or so, about 50,000 (12%) were called active. Not shown: some 26% with an inconclusive outcome. Calls follow the shape of the dose curve; as a rule, active = well fitted inhibition curve with a large enough effect; inconclusive = small, poorly fitted or top-dose-only effect; inactive = flat fitted curve, though single readings scatter. Only a part is listed here, and it is no random draw. The source holds several records for some structures; these can differ, active in one and inactive in another.

Assay: qHTS for Inhibitors of human tyrosyl-DNA phosphodiesterase 1 (TDP1): qHTS in cells in presence of CPT; also: nearly all actives have a fitted effect of over 55% in size
Conditions: chicken DT40 Tdp1-/-;hTDP1 cells + 20 nM CPT, ATP luminescence, 48 h; series mostly up to 46.2 µM; activity change, negative = growth inhibition: at the top concentration
Method in brief: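 Chicken DT40 Tdp1-/- cells complemented with human TDP1, 400 cells/well, exposed to compounds plus 20 nM camptothecin for at least 48 h at 37 C; viability read as ATP content by CellTiter-Glo luminescence.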
% is scaled to controls: 0 for no effect and ±100 for the full control effect; potency is read from the fitted curve at half-maximal effect.

Compound	activity change, negative = growth inhibition	Potency
C[C@H]1CN([C@@H](C)CO)C(=O)CCCn2nncc2CO[C@H]1CN(C)S(=O)(=O)c1ccccc1	inactive: -6.42%	–
COCCCNC(=O)C(F)(F)C(F)(F)C(=O)NCCCOC	inactive: -8.99%	–
O=C(Nc1ccccc1)O[C@@H]1C[C@H]2CCCC(=O)N3CC[C@@H](C1)[C@@H]23	inactive: -9.04%	–
COc1cc(NC(=O)C(=O)Nc2ccc3nc4n(c(=O)c3c2)CCCCC4)cc(OC)c1OC	inactive: -5.95%	–
Brc1ccc2c(c1)-c1ccccc1C1=NCCN12	–	active: 1.46 µM
COC(=O)c1ccc(-c2sc3nc(N4CCOCC4)c4c(c3c2N)CCCC4)o1	–	active: 18.4 µM
CN(C)CCC[C@]1(c2ccc(F)cc2)OCc2cc(C#N)ccc21	inactive: -20.1%	–
COc1ccc2c(c1)sc(=N)n2CC(=O)Nc1cc(C)cc(C)c1	inactive: 30.2%	–
CCC(Oc1ccccc1)C(=O)N[C@@H]1C(=O)N2[C@@H]1SC(C)(C)[C@@H]2C(=O)O (stereo partly specified)	inactive: 0.328%	–
c1cnc2cc3c(cc2n1)[C@@H]1CNC[C@H]3C1	inactive: 2.48%	–
CC1(C)C(O)CC[C@]2(C)C1CC[C@@]1(C)C2C(=O)C=C2[C@@H]3C[C@@](C)(C(=O)O)CC[C@@]3(C)CCC21C (stereo partly specified)	inactive: 14.2%	–
CCOc1cc(/C=N/N=C2/NC(=O)C(CC(=O)O)S2)ccc1OS(=O)(=O)c1ccc(C)cc1 (stereo unspecified)	inactive: 33.5%	–
O=C(O)C[C@H]1c2ccccc2S(=O)(=O)N1C1CCCCC1	inactive: -18.6%	–
O=c1cc(-c2ccc(O)cc2)oc2cc(O)cc(O)c12	–	inactive
CSc1ccc(OC2CCCCC2NS(=O)(=O)c2ccc(Cl)cc2)cc1 (stereo unspecified)	–	active: 25.9 µM
COC(C[C@H](O)[C@H](C)[C@H](O)COCc1ccccc1)OC	inactive: 10%	–
CC(Cc1ccccc1)Nc1ncnc2c1ncn2C1OC(CO)C(O)C1O (stereo unspecified)	inactive: 11.8%	–
C[C@H]1CN([C@@H](C)CO)C(=O)CCCn2nncc2CO[C@H]1CN(C)S(=O)(=O)c1ccc(Cl)cc1	inactive: -26.4%	–
Cc1cc(NC(=O)CS(=O)c2cn(Cc3cccc(Cl)c3)c3ccccc23)no1 (stereo unspecified)	–	active: 20.6 µM
COc1cccc(N2CCN(c3ncnc4c3cnn4-c3ccc(C)cc3C)CC2)c1	–	active: 1.84 µM
O=C(CNC(=O)C1CCCCC1)NC1=NCCS1	–	active: 25.9 µM

Compound	activity change, negative = growth inhibition	Potency
O=C1CCN(Cc2ccccc2)S(=O)(=O)c2ccc(F)cc21	inactive: -2.23%	–
c1ccc(C2CN3CCSC3=N2)cc1 (stereo unspecified)	–	inactive
CC(=O)C[C@H]1c2cc(C(F)(F)F)ccc2S(=O)(=O)N1C1CCCC1	inactive: -8.83%	–
COc1ccc(CNC(=O)Cn2cccc2C(=O)c2ccccc2C)cc1	inactive: 14.1%	–
O=C(c1ccccc1)N(c1ccccc1)c1ccccc1O	–	active: 14.6 µM
CCCN[C@H]1CCc2nc(N)sc2C1	inactive: -27.4%	–
O=C1NC[C@@H](CCCCN2C[C@H](Cc3ccccc3)N(Cc3ccccc3)C(=O)C2=O)N(CCc2ccccc2)C1=O	inactive: -12.7%	–
COc1ccc(/C=C2\SC(=O)N(CCC(=O)Nc3ccc(S(=O)(=O)Nc4nccs4)cc3)C2=O)cc1	inactive: 2.18%	–
c1ccc(-c2cn(CC3CCCCC3)nn2)cc1	inactive: -15.8%	–
CCCCCC(=O)N1C[C@@H](O)[C@H](n2cc(C3CC3)nn2)C[C@@H]1c1ccc(C)cc1	inactive: -19.7%	–
C#CCNC(=O)C1=C[C@@H](c2ccccc2)C[C@@H](OCc2ccc(CO)cc2)O1	inactive: 1.37%	–
CCOC(=O)C[C@H]1c2ccc(C(F)(F)F)cc2S(=O)(=O)N1C1CCCC1	inactive: -19.3%	–
CCOC(=O)CN1C(=O)C(O)=C(C(C)=O)C1c1ccc([N+](=O)[O-])cc1 (stereo unspecified)	inactive: 30.1%	–
COc1ccccc1CNC(=O)CN1C(=O)CSc2ccc(S(=O)(=O)N3CCCC3)cc21	inactive: -10.6%	–
Cc1ccc(-n2c(CCC(=O)O)ccc2-c2cccs2)cc1C	inactive: -8.08%	–
CC(C)(C)[C@H]1COC(=O)[C@@H](Cc2ccc(F)cc2)CC/C=C/C[C@@H](CC(=O)N[C@@H](CO)Cc2ccccc2)C(=O)N1	inactive: -109%	–
CCCCN(Cc1ccccc1)S(=O)(=O)c1cc(Br)cc2c1N(C(C)=O)C(C)C2 (stereo unspecified)	–	active: 16.4 µM
O=C(CN1C(=O)COc2ccc(S(=O)(=O)N3CCCCC3)cc21)NCc1ccc(F)cc1	inactive: -11.8%	–
O=C(COC(=O)CCOc1ccccc1)NCCc1ccccc1	inactive: -5.46%	–
CCN1CCC[C@H]1CNC(=O)c1c(OC)ccc(Br)c1OC	–	inactive
CCO[C@H]1OC(C(=O)N2CCOCC2)=C[C@@H](c2ccc(C(F)(F)F)cc2)[C@@H]1CCCO	–	active: 0.517 µM

Compound	activity change, negative = growth inhibition	Potency
Cc1oc2cc([N+](=O)[O-])c(O)c([N+](=O)[O-])c2c1C(=O)c1ccc(Cl)cc1	–	active: 23.1 µM
O=C(O)CSCC(=O)NCc1ccc(Cl)cc1	inactive: 36.2%	–
O=S(=O)(NCc1ccco1)N1CCOCC1	inactive: 35.7%	–
CC(NC(=O)C(=O)NCC1CCCO1)c1ccccc1 (stereo unspecified)	inactive: 30.9%	–
CCCN=C1NC(=O)C(CC(=O)NCCc2ccc(OC)c(OC)c2)S1 (stereo unspecified)	inactive: 31.1%	–
Cc1ccc(Nc2cc(C(=O)NC3CCCC3)c3ccccc3n2)cc1C	–	active: 13 µM
Cc1ccc(SCCC(=O)Nc2nccs2)cc1	inactive: 11.4%	–
C=CCOc1nc2c(c(=O)n(C)c(=O)n2C)n1Cc1ccccc1Cl	–	active: 16.4 µM
C[C@@H]1C[C@H]2[C@@H]3CCC4=CC(=O)C=C[C@]4(C)[C@@]3(F)[C@@H](O)C[C@]2(C)[C@@]1(O)C(=O)CO	–	inactive
O=C(CSc1nnc(-c2ccncc2)n1-c1ccccc1)Nc1ccc(C(=O)O)cc1	inactive: 13.5%	–
CCOc1cc(C(=O)Nc2ccc3oc(-c4ccc(CC)cc4)nc3c2)cc(OCC)c1OCC	–	active: 23.1 µM
O=C(O)C(S)C(S)C(=O)O (stereo unspecified)	inactive: -9.55%	–
O=C(C[C@H]1C/C=C\C[C@@H](Cc2ccc(F)cc2)C(=O)O[C@H](c2ccccc2)CNC1=O)N[C@@H](CO)Cc1ccccc1	inactive: -21.6%	–
O=C(CSc1ccc2ccccc2c1)NCCc1ccc(O)c(O)c1	–	active: 16.4 µM
C#CCN1CC(C)/C(=N/O)CC1C (stereo unspecified)	inactive: 41.5%	–
CC(C)(C)OC(=O)C[C@H]1C/C=C\C[C@H](CC(=O)NCCO)C(=O)NC[C@H](c2ccccc2)OC1=O	inactive: 1.33%	–
O=C(O)CSc1ncccn1	inactive: -4.77%	–
C=CC[C@@H](CC(=O)OC(C)(C)C)C(=O)OC[C@@H]1CCCN1C(=O)[C@H](CC=C)CC(=O)NCCO	inactive: -2.93%	–
CN(C)N=Nc1ccc(S(=O)(=O)NC(=O)Cc2ccccc2)cc1	inactive: 36.9%	–
